In the supplement of paper PMC10126150:
Sequences with one replicate were seen in a single cluster, so their values are uncertain.
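Further: ATP exposure 15 min at 22 °C before imaging.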

The sequences below were run on ATP (assay: switch fluorescence ratio, 500 uM ATP over buffer (Cy3 cluster intensity, sum of 5 cycles each) (fold (ratio)); higher = stronger signal-on switching upon ATP binding; sequences stand for … in TCGTCGGCAGCGTCAGATGTGTATAAGAGACAGTTTTTTTTTTTTTTTTTTTTTTTTT…TC). Details: aptamer strand: ATP DNA aptamer (quencher-CACCTGGGGGAGTATTGCGGAGGAAGG + anchor), 100 nM annealed; ATP concentration: 500 uM; one replicate.
In short: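 Per cluster, summed Cy3 intensity from the target cycles was divided by that from the buffer cycles to give the fluorescence ratio, then averaged per switch-domain sequence. Clusters outside 100-1000 RFU were excluded. The Cy3-labelled switching-strand clusters, on a modified Illumina MiSeq flow-cell, were annealed to 100 nM quencher-labelled ATP aptamer and imaged in selection buffer, then after 15 min with 500 uM ATP at 22 °C, for five cycles with NaOH stripping and re-annealing between them.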
For TTTCGGCCC, the switch fluorescence ratio was 1.06.
Sequence TTTCGGGACA has a switch fluorescence ratio of 1.03.
TTTCGTTGT showed a switch fluorescence ratio of 1.02.
TTTCTAAGGC was tested, and the switch fluorescence ratio was 0.964.
For TTTCTAAGGT, the switch fluorescence ratio was 1.03.
For TTTCTACCTA, the switch fluorescence ratio was 1.03.
TTTCTAGTAG was tested, and the switch fluorescence ratio was 0.99.
TTTCTCGAAC was tested, and the switch fluorescence ratio was 0.985.
With TTTCTCGAT the switch fluorescence ratio was 1.08.
TTTCTGGCCA was tested, and the switch fluorescence ratio was 1.04.
TTTCTGTGAA showed a switch fluorescence ratio of 1.
Sequence TTTCTTAATG has a switch fluorescence ratio of 0.985.
Sequence TTTCTTAGTC has a switch fluorescence ratio of 1.01.
Sequence TTTCTTCAGG has a switch fluorescence ratio of 1.14.
Work on TTTCTTCGAT yielded a switch fluorescence ratio of 1.02.
Work on TTTCTTCGTC yielded a switch fluorescence ratio of 1.04.
TTTCTTTCG showed a switch fluorescence ratio of 1.11.
Sequence TTTGAAAACC has a switch fluorescence ratio of 1.19.
For TTTGAACTTA, the switch fluorescence ratio was 1.01.
Work on TTTGACAAAA yielded a switch fluorescence ratio of 1.04.
TTTGACCGT was tested, and the switch fluorescence ratio was 0.998.
Sequence TTTGACCTCA has a switch fluorescence ratio of 0.99.
TTTGACGCGG gave a switch fluorescence ratio of 1.
TTTGACTCGT was tested, and the switch fluorescence ratio was 0.968.
Sequence TTTGACTT has a switch fluorescence ratio of 1.05.
TTTGAGATAA gave a switch fluorescence ratio of 1.01.
For TTTGAGGAGT, the switch fluorescence ratio was 0.999.
TTTGATCTAC gave a switch fluorescence ratio of 0.997.
TTTGATGCCA showed a switch fluorescence ratio of 1.01.
Sequence TTTGATTAAC has a switch fluorescence ratio of 1.02.
TTTGATTAGC showed a switch fluorescence ratio of 0.973.
With TTTGCC the switch fluorescence ratio was 1.04.
TTTGCCATGT showed a switch fluorescence ratio of 0.986.
With TTTGCCGCGC the switch fluorescence ratio was 1.08.
Sequence TTTGCCTCC has a switch fluorescence ratio of 1.26.
TTTGCGCGCT showed a switch fluorescence ratio of 1.
TTTGCGGAGT was tested, and the switch fluorescence ratio was 1.06.
TTTGCGTAAA showed a switch fluorescence ratio of 0.962.
With TTTGCGTAAT the switch fluorescence ratio was 2.82.
TTTGCTAAT was tested, and the switch fluorescence ratio was 0.981.
In the case of TTTGCTAGCG, the switch fluorescence ratio was 0.974.
For TTTGCTAGG, the switch fluorescence ratio was 1.04.
TTTGCTGAAT showed a switch fluorescence ratio of 1.56.
Work on TTTGCTTATC yielded a switch fluorescence ratio of 1.07.
Work on TTTGGAATCC yielded a switch fluorescence ratio of 0.991.
For TTTGGACA, the switch fluorescence ratio was 1.03.
For TTTGGACAAC, the switch fluorescence ratio was 1.
Sequence TTTGGATCCA has a switch fluorescence ratio of 0.987.
With TTTGGATTG the switch fluorescence ratio was 0.956.
Work on TTTGGCACAG yielded a switch fluorescence ratio of 1.
For TTTGGCATT, the switch fluorescence ratio was 1.1.
For TTTGGCATTG, the switch fluorescence ratio was 1.04.
In the case of TTTGGCGAGG, the switch fluorescence ratio was 0.943.
TTTGGCTCTT gave a switch fluorescence ratio of 0.971.
Sequence TTTGGTACCT has a switch fluorescence ratio of 1.07.
TTTGGTAGAC was tested, and the switch fluorescence ratio was 1.01.
Sequence TTTGGTATCT has a switch fluorescence ratio of 0.992.
Sequence TTTGGTCAG has a switch fluorescence ratio of 0.967.
TTTGGTCATT was tested, and the switch fluorescence ratio was 0.999.
For TTTGGTCCTG, the switch fluorescence ratio was 0.987.
With TTTGGTGAAT the switch fluorescence ratio was 0.984.
TTTGTACGGA showed a switch fluorescence ratio of 1.03.
TTTGTAGAGG showed a switch fluorescence ratio of 0.982.
In the case of TTTGTAGGCT, the switch fluorescence ratio was 0.995.
Work on TTTGTCAGAA yielded a switch fluorescence ratio of 0.994.
TTTGTCCAGA showed a switch fluorescence ratio of 0.991.
In the case of TTTGTCTAAA, the switch fluorescence ratio was 0.995.
TTTGTGAATA gave a switch fluorescence ratio of 1.01.
With TTTGTGCAA the switch fluorescence ratio was 1.6.
In the case of TTTGTTTCAG, the switch fluorescence ratio was 0.982.
In the case of TTTGTTTCCG, the switch fluorescence ratio was 1.06.
With TTTTAACATC the switch fluorescence ratio was 1.04.
In the case of TTTTAACTGA, the switch fluorescence ratio was 1.05.
Sequence TTTTAATCCT has a switch fluorescence ratio of 1.1.
With TTTTACCG the switch fluorescence ratio was 0.985.
TTTTAGACTT showed a switch fluorescence ratio of 0.992.
Sequence TTTTAGT has a switch fluorescence ratio of 1.01.
In the case of TTTTAGTGTA, the switch fluorescence ratio was 0.979.
In the case of TTTTCAATTA, the switch fluorescence ratio was 1.
Sequence TTTTCACACA has a switch fluorescence ratio of 0.935.
In the case of TTTTCAGAGA, the switch fluorescence ratio was 0.977.
With TTTTCCAGTG the switch fluorescence ratio was 1.07.
TTTTCCGAGG gave a switch fluorescence ratio of 1.09.
Sequence TTTTCCTGT has a switch fluorescence ratio of 1.02.
TTTTCCTGTG was tested, and the switch fluorescence ratio was 1.01.
TTTTCCTTTA was tested, and the switch fluorescence ratio was 1.
In the case of TTTTCCTTTG, the switch fluorescence ratio was 1.06.
With TTTTCGAACG the switch fluorescence ratio was 0.995.
In the case of TTTTCGACTC, the switch fluorescence ratio was 1.03.
Work on TTTTCGCCAG yielded a switch fluorescence ratio of 1.02.
TTTTCGCGAA gave a switch fluorescence ratio of 1.05.
With TTTTCGCGCG the switch fluorescence ratio was 0.982.
With TTTTCGCGCT the switch fluorescence ratio was 1.02.
Work on TTTTCGGAAA yielded a switch fluorescence ratio of 0.995.
TTTTCTATCG was tested, and the switch fluorescence ratio was 0.973.
TTTTCTCCTA was tested, and the switch fluorescence ratio was 0.928.
For TTTTCTCGGA, the switch fluorescence ratio was 0.999.
For TTTTCTCT, the switch fluorescence ratio was 1.01.
TTTTCTGATT was tested, and the switch fluorescence ratio was 1.01.
Work on TTTTCTTCAC yielded a switch fluorescence ratio of 1.04.
Sequence TTTTGAGCC has a switch fluorescence ratio of 0.976.
Sequence TTTTGCAGGG has a switch fluorescence ratio of 0.994.
Work on TTTTGCCACT yielded a switch fluorescence ratio of 1.01.
Sequence TTTTGCCTCA has a switch fluorescence ratio of 0.995.
TTTTGGCCGA gave a switch fluorescence ratio of 0.961.
TTTTGTAAC was tested, and the switch fluorescence ratio was 0.994.
For TTTTGTG, the switch fluorescence ratio was 0.98.
Sequence TTTTTAACA has a switch fluorescence ratio of 1.04.
In the case of TTTTTACAG, the switch fluorescence ratio was 1.05.
With TTTTTAGCGC the switch fluorescence ratio was 0.948.
TTTTTCATTG gave a switch fluorescence ratio of 1.01.
In the case of TTTTTCCAAT, the switch fluorescence ratio was 1.03.
Work on TTTTTCTGT yielded a switch fluorescence ratio of 1.01.
Sequence TTTTTGACGT has a switch fluorescence ratio of 1.04.
